The structures appear in SMILES notation. The campaign covered roughly 48,000 compounds. About 450 (0.94%) were called active. Another 19% or so got no clear call; they are omitted. The call rests on the fitted dose curve; in most records, active means well fitted inhibition curve with a large enough effect; inconclusive means small, poorly fitted or top-dose-only effect; inactive means no such curve, though single readings can be large or run the other way. The list shows a part of the results.

We go through 48 compounds from PubChem BioAssay AID1508623 (National Center for Advancing Translational Sciences (NCATS), 2021).

A short description of this assay: Primary qHTS for Identification of Small Molecule Inhibitors of Huntingtin Promoter Activity. Further: nearly all actives have a fitted effect of over 50% in size. Particulars: HEK293 HTT promoter firefly luciferase reporter (activity 0% = vehicle and -100% = no light), 24 h; series mostly up to 57.5 µM; activity change, negative = inhibition: at the top concentration. An outline of the steps: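 HEK293 luciferase promoter-reporter cells (2,500/well) plated 24 h, then compounds added at up to 57.5 uM final for 24 h at 37 °C. Firefly luminescence by Dual-Glo, normalized to vehicle (0%) and zero RLU (-100%).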
A general note: In qHTS, concentration-response curves come from the screen itself.
Turning to `CCC(C)NC(=O)c1c(-c2ccccc2)c(-c2ccccc2)nn(C)c1=O` (stereo not drawn), the “activity change, negative = inhibition” value was inactive: -8.09%.
For `Cc1ccc(C(=O)NC2(C(F)(F)F)C(=O)Nc3c2c(=O)[nH]c(=O)n3CCc2ccccc2)cc1` (stereo not drawn), the “activity change, negative = inhibition” value was inactive: -3.09%.
Then `CCOC(=O)c1cc(-c2ccccc2)n(CCCC(=O)Nc2ccc(C)cc2C)c1C`, with inactive: -26.6%; and `Cc1c(C(=O)N2CCC(C(=O)Nc3ccc(F)cc3)CC2)sc2nc[nH]c(=O)c12`, with inactive: -9.02%; and `Cc1cccc(-n2c3nc(=O)n(C)c(=O)c-3cc3ccc(Cl)cc32)c1C`, with inactive: -7.52%.
As for `Oc1cccc(Nc2ncnc3sc4c(c23)CCCC4)c1`, the “activity change, negative = inhibition” value is inactive: -25.6%.
As to `CS(=O)(=O)N1CCc2cc(C(=O)NCc3ccccc3)ccc21`, the “activity change, negative = inhibition” value is inactive: -5.7%.
The value for `CC(C)(C)C(=O)N1CCN(c2nc3c(F)cccc3s2)CC1` was inactive: 7.42%; that for `CCOc1ccc(-n2c(SCC(=O)N3CCCCC3)nc3c([nH]c4ccccc43)c2=O)cc1` was inactive: -6.38%; that for `COc1ccc(N2CCN(C(=O)c3nc(-c4ccc(Cl)cc4)n4c3CCCCC4)CC2)cc1` was inactive: -12% [at 11.5 µM].
Then `Cc1ccc(Cl)cc1N1CCN(CCNC(=O)Nc2ccc(Cl)cc2)CC1`, with inactive: -43.3%; and `O=C(C1CCN(S(=O)(=O)c2cccc3nonc23)CC1)N1CCN(c2ccccc2)CC1`, with inactive: -16.6%; and `COc1ccc(NC(=O)c2nnn(Cc3ccc(Br)cc3F)c2N)c(OC)c1`, with inactive: -11.8%.
The value for `CCOc1ccc(CNC(=O)c2ccc(CS(=O)c3ccccc3)o2)cc1` (stereo not drawn) was inactive: -8.07%; that for `CS(=O)(=O)N1CCc2cc(C(=O)N3CCN(c4ccc(F)cc4)CC3)ccc21` was inactive: -24.9%; that for `Cc1ccc(N2CC(NC(=O)c3ccc4c(c3)OCO4)CC2=O)cc1` (stereo not drawn) was inactive: -16.1%.
With `Cc1ccccc1NC(=O)Cn1nc(-c2ccc(F)cc2)c2cnc3ccccc3c21`, the “activity change, negative = inhibition” value is inactive: -1.68%.
Take `CC(=O)N1CCCc2ccc(NS(=O)(=O)c3ccc(F)cc3F)cc21`: the “activity change, negative = inhibition” value is inactive: -17%.
Then `CCOc1ccc(-c2c(C)nn3c(C)c(C(=O)NCc4ccc(C)o4)cnc23)cc1OCC`, with inactive: -10.4%.
As for `Cc1ccc2nc(NC(=O)c3cc(=O)c4cc(Cl)ccc4o3)sc2c1`, the “activity change, negative = inhibition” value was inactive: -14.2%.
The value for `CCc1ccccc1NC(=O)CSc1nnc(CC)c(CC)n1` was inactive: -19.9%.
As for `CC(=O)N1CCc2c(sc3c2c(=O)n(-c2ccc(C)cc2)c(=O)n3CC(=O)Nc2ccccc2)C1`, the “activity change, negative = inhibition” value was inactive: 35.1%.
Then `COc1ccccc1NC(=O)c1c(NC(=O)c2ccccc2F)sc2c1CCC2`, with inactive: -15.1% [at 11.5 µM]; and `COC(=O)c1c(NC(=O)c2ccccc2C(=O)O)sc2c1CCCC2`, with inactive: 2.21%.
Then `Cc1ccc(-c2cc(C(=O)NCc3ccccc3)c3c(-c4ccc(C)cc4)[nH]nc3n2)cc1`, with inactive: -15.1%; and `COc1ccc(N2CCN(C(=O)c3ccc4c(c3)CCN4S(C)(=O)=O)CC2)cc1`, with inactive: -9.91%.
The value for `Cc1ccc(C)c(S(=O)(=O)c2nnn3c2nc(Nc2ccc(F)c(Cl)c2)c2sccc23)c1` was inactive: 5.02%; that for `Cc1ccc2c(c1)N(C(=O)N1CCC(C(=O)NCc3ccco3)CC1)CC(C)O2` (stereo not drawn) was inactive: -11.7%; that for `Cc1ccc(S(=O)(=O)CCC(=O)N2CCN(c3nc4c(C)c(Cl)ccc4s3)CC2)cc1` was inactive: -25%.
For `Cc1cccc(C(=O)Nc2nc(-c3ccc(Br)cc3)ns2)c1`, the “activity change, negative = inhibition” value is inactive: 7.17%.
As to `CN=C(NC#N)NCCSCc1csc(N=C(N)N)n1`, the “activity change, negative = inhibition” value was inactive: 3.86%.
The value for `CCOC(=O)C1CCN(C(=O)Cn2ncc3c([nH]c4ccc(C)cc43)c2=O)CC1` was inactive: 3.38%.
Then `CC(=O)N1CCC2(CC1)OC(=O)C(C)=C2C(=O)Nc1ccccc1C(F)(F)F`, with inactive: -12.7%; and `CN(C)CCN1C(=O)c2ccccc2N(C)c2ccccc21`, with inactive: 4.27%; and `CCCC(=O)OC[C@@H](OC(=O)CCC)[C@@H](OC(=O)CCC)[C@H](Cn1c2nc(=O)[nH]c(=O)c-2nc2cc(C)c(C)cc21)OC(=O)CCC`, with inactive: -7.9%.
The value for `COc1ccc(OC)c(C(O)CNC(=O)CN)c1` (stereo not drawn) was inactive: 13.3%.
`CC(S)C(=O)NCC(=O)O` (stereo not drawn): the activity change, negative = inhibition result is “inactive”.
Consider `CCCC(=O)O[C@]1(C(=O)COC(=O)CC)CC[C@H]2[C@@H]3CCC4=CC(=O)CC[C@]4(C)[C@H]3[C@@H](O)C[C@@]21C`, for which the “activity change, negative = inhibition” value was inactive: -0.4% [at 25.2 µM].
Regarding `CSc1ncc(C(=O)N2CCN(c3ccc(F)cc3)CC2)c(C)n1`, the “activity change, negative = inhibition” value was inactive: -7.04%.
Then `Cc1ccc(C)c(N2CCN(C(=O)c3cc(S(=O)(=O)N4CCCC4)cn3C)CC2)c1`, with inactive: -18.1%; and `CCc1nnc(SCc2nc(-c3ccc(OC)cc3)oc2C)c2cc3sccc3n12`, with inactive: -0.96%.
The value for `Cc1ccccc1NC(=O)CN1C(=O)CCn2nc(-c3cccn3C)cc21` was inactive: 11.8%; that for `Cc1sc2c(c1C)c(=O)n(-c1cccc(C(F)(F)F)c1)c(=O)n2Cc1ccccc1C#N` was inactive: -2.13%; that for `CCCCn1c(-c2ccc(C)cc2)c(C)n2c3c(=O)n(C)c(=O)n(C)c3nc12` was inactive: -26.9%.
`Cc1ncc(CO)c2c1Oc1nc(-c3ccccc3)nc(SCC(=O)Nc3cccc(C(F)(F)F)c3)c1C2`: the “activity change, negative = inhibition” value is inactive: -22.1%.
Then `CCn1cc(C(=O)NCc2ccccc2Cl)c(=O)c2cc(S(=O)(=O)N3CCCCC3)ccc21`, with inactive: -9.11%.
Then `O=C(CSc1n[nH]c(-c2ccccc2Cl)n1)N1CCN(c2ccccc2F)CC1`, with inactive: -18.5%.
The value for `O=C(Cc1ccccc1)Nc1cccc(-c2nc3cccnc3s2)c1` was inactive: 2.93%.
